Experimental data: PubChem BioAssay AID488969 (Vanderbilt High Throughput Screening Facility, 2010)
Whole data set: some 110,000 compounds, median “z-score” near -0.1, cut for the highest 2% near 2. This is one part of the list. Activity calls are given as the source filed them.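 Rule for the calls: active = z-score in the third read window above 3 or below -3; inactive = the rest.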

biological target: Metabotropic glutamate receptor 8 (Rattus norvegicus) (UniProt P70579); assay: rat mGluR8 modulators via GIRK flux, primary screen, cell-based, thallium flux, HTS (AID 488969); settings: HEK293 rat mGluR8, GIRK (G protein-gated inwardly rectifying potassium channel) thallium flux, FluoZin2; at 10 µM; stronger effect = higher value; submaximal glutamate (EC20) added with thallium
UniProt P70579, sequence (P70579 whole entry, looked up): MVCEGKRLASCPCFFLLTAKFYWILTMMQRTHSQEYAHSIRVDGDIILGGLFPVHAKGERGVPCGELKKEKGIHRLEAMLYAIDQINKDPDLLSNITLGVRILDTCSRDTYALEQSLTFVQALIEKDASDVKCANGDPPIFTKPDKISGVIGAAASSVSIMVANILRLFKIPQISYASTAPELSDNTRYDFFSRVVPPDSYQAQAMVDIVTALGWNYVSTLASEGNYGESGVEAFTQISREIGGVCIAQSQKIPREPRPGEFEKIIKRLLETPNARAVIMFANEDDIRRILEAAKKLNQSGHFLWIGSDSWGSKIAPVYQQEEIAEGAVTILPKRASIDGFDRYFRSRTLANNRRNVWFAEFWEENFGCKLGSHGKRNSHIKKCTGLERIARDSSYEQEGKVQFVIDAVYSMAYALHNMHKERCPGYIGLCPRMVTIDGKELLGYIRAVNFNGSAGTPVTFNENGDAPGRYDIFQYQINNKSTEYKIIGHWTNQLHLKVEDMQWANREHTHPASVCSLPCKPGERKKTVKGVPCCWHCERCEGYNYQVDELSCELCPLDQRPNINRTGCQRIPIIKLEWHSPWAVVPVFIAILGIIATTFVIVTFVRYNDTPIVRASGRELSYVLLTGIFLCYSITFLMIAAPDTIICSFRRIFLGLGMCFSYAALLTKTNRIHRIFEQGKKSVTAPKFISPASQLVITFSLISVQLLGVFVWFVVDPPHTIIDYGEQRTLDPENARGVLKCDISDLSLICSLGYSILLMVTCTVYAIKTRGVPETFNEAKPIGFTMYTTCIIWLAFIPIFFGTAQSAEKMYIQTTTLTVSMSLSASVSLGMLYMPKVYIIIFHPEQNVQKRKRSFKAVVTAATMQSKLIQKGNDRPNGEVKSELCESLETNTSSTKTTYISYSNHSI

Which z-score does the source give for `Cc1ccc(NS(=O)(=O)c2ccccc2Cl)c2c1CC(C)(C)O2` here?
The z-score was 0.142.

For `CC(C)OC(=O)c1cccnc1SCC(=O)N(C)c1ccccc1`, which z-score is on record?
The z-score was -0.698.

Which z-score does the source give for `CCCCC(CC)CN1C(=O)/C(=C/c2ccncc2)SC1=S` (stereo unspecified) here?
The z-score was -0.105.

`Cc1ccc(/C=N/N2CCN(Cc3ccccc3)CC2)o1` was tested. Which z-score did it give?
The z-score was 0.121.

For `Cc1nnc(-c2cccc(Br)c2)c2cn(-c3ccccc3Cl)nc12`, which z-score is on record?
The z-score was -0.437.

With `CCCOc1ccc(C(=O)Nc2ccc(C)cc2[N+](=O)[O-])cc1` as the compound, how does the z-score read?
Its z-score is -0.35.

With `O=C(Nc1nc(-c2ccc(F)c(F)c2)cs1)c1ccc(OCC2CCCO2)cc1` (stereo unspecified) as the compound, how does the z-score read?
Its z-score is -0.359.

How did the z-score turn out when `O=C1/C(=C/c2ccccc2)Oc2cc(OC(=O)N3CCOCC3)ccc21` was run?
The z-score was -0.159.

`CCc1ccc(N=C2N=C(N)c3ccccc32)cc1` was tested. Which z-score did it give?
The z-score was -0.165.

How did the z-score turn out when `O=C(NCc1cn2ccsc2n1)c1cccs1` was run?
The z-score was -0.616.

Which z-score does the source give for `Cn1ccnc1-c1nc2ccccc2[nH]c1=O` here?
Its z-score is 0.000744.

For `C=CCn1c(SCc2nc3ccccc3c(=O)[nH]2)nc2ccccc2c1=O`, which z-score is on record?
The z-score was -0.561.

For `c1ccc(-c2nn3nnnc3c3ccccc23)cc1`, which z-score is on record?
Its z-score is 0.134.

Which z-score does the source give for `CN1CCN(c2ccccc2NS(=O)(=O)c2ccc3c(c2)CCN3C(=O)C2CCC2)CC1` here?
Its z-score is 0.507.

Which z-score does the source give for `CCC(CC)C(=O)c1c[nH]c(C(=O)NCc2ccco2)c1` here?
The z-score was 0.0881.

With `CCC(C)NC(=O)Nc1ccc2c(c1)N(C)C(=O)c1ccccc1S2` (stereo unspecified) as the compound, how does the z-score read?
The z-score was -0.535.

For `COC(=O)Cn1c(CCS(=O)(=O)c2ccc(Cl)cc2)nc2ccccc21`, which z-score is on record?
Its z-score is -0.43.

With `CCc1ccc(C(=O)N2CCN(c3ccc(F)cc3)CC2)s1` as the compound, how does the z-score read?
The z-score was -0.883.

For `CCOC(=O)Cn1c(=O)oc2cc(S(=O)(=O)Nc3ccc(N(CC)CC)cc3C)ccc21`, which z-score is on record?
Its z-score is 2.74.

`CCCn1c(C)cc(C(=O)COC(=O)c2c(C)nn(-c3ccccc3)c2C)c1C` was tested. Which z-score did it give?
Its z-score is 0.0826.

With `Cc1nnc(SCc2nnc(-c3ccccc3Br)o2)n1-c1ccccc1` as the compound, how does the z-score read?
Its z-score is -0.102.

`Cc1ccc(-c2nc3s/c(=C\c4ccco4)c(=O)n3n2)cc1` was tested. Which z-score did it give?
The z-score was -0.145.

`COC(=O)c1ccccc1NC(=O)CSc1nc2c(c(=O)n(C)c(=O)n2C)n1C` was tested. Which z-score did it give?
The z-score was -0.00667.

How did the z-score turn out when `c1ccc(Cn2ncc3c(N4CCOCC4)ncnc32)cc1` was run?
Its z-score is -0.095.

For `CC1CCN(c2ncnc3c2cnn3Cc2ccc(Cl)cc2)CC1`, which z-score is on record?
Its z-score is -0.0922.

`CCO/C=C1/C(=O)N(C(C)=O)c2ccccc21` was tested. Which z-score did it give?
The z-score was 0.333.

For `Cc1cc(C(=O)OCC(=O)N2CCN(c3ccccc3)CC2)c2ccccc2n1`, which z-score is on record?
Its z-score is -1.52.

For `Cc1ccc(N2C(=O)N(CC(=O)NCc3ccc(Cl)cc3)C(=O)C2C)cc1` (stereo unspecified), which z-score is on record?
The z-score was -0.209.

Which z-score does the source give for `Cc1ccc(NC(=O)CCC(=O)OC(C(=O)c2ccc(C)c(C)c2)c2ccccc2)c(C)c1` (stereo unspecified) here?
Its z-score is -0.288.

Which z-score does the source give for `COc1cc(/C=C2\SC(=S)NC2=O)ccc1OS(=O)(=O)c1ccccc1` here?
The z-score was active: 15.1.

`Cc1cccc(C(=O)NCCc2ccc(S(N)(=O)=O)cc2)c1[N+](=O)[O-]` was tested. Which z-score did it give?
Its z-score is 0.144.

Which z-score does the source give for `CCc1ccc(NC(=O)CC2NCCNC2=O)cc1` (stereo unspecified) here?
The z-score was 0.239.

`O=c1cc(-c2ccccc2)nc2nc(SCc3ccccc3)[nH]n12` was tested. Which z-score did it give?
The z-score was -0.33.

Which z-score does the source give for `COc1ccc(OCCSc2nnc(-c3ccoc3C)n2C)cc1` here?
The z-score was -0.174.

Which z-score does the source give for `CNC(=O)Nc1ccccc1NC(=O)NC` here?
Its z-score is 0.0574.

For `CCOC(=O)C1=C(C)NC2=C(C(=O)CC(C)(C)C2)C1c1coc2ccccc2c1=O` (stereo unspecified), which z-score is on record?
Its z-score is -0.105.

Which z-score does the source give for `CCCC(=O)Nc1nc(-c2ccc3c(c2)OCCO3)cs1` here?
The z-score was 0.242.

`COc1ccc(OC)c(NS(=O)(=O)c2ccc(N3CCCC3=O)cc2)c1` was tested. Which z-score did it give?
Its z-score is -0.156.

For `COC(=O)c1nc(NC(C)=O)n[nH]1`, which z-score is on record?
Its z-score is active: -5.48.

With `CCOC(=O)C1=C(C)NC(=O)NC1c1ccc(OC(C)C(=O)O)c(OC)c1` (stereo unspecified) as the compound, how does the z-score read?
Its z-score is 0.0131.

How did the z-score turn out when `COc1cc2c(cc1OC)C(=O)CCS2` was run?
Its z-score is -0.155.

For `Cc1cccc(-n2[nH]c(C)c(C=Nc3ccc4[nH]c(=O)[nH]c4c3)c2=O)c1`, which z-score is on record?
Its z-score is -0.176.

With `O=C(Nc1cc(Cl)ccc1O)c1cc2n(n1)C(C(F)(F)F)CC(c1ccc3c(c1)OCO3)N2` (stereo unspecified) as the compound, how does the z-score read?
Its z-score is -0.147.

Which z-score does the source give for `COC(=O)Nc1ccc(S(=O)(=O)N2CCCC(C(=O)NC3CCS(=O)(=O)C3)C2)cc1` (stereo unspecified) here?
The z-score was -0.597.

For `O=C(CNS(=O)(=O)c1cccc(Cl)c1)OCc1csc(-c2ccccc2)n1`, which z-score is on record?
The z-score was -1.56.

With `O=C(CSc1nnc(-c2ccccc2F)n1C1CCCCC1)N1CCCC1` as the compound, how does the z-score read?
Its z-score is -0.551.

For `CCOc1ccc(Oc2ccc(C(F)(F)F)cc2N)cc1`, which z-score is on record?
Its z-score is -0.33.

For `COc1ccc(Cc2c(C)nc(N)nc2Cl)cc1`, which z-score is on record?
The z-score was 0.388.

`O=C(CSCCc1ccccn1)Nc1ccc(Br)cn1` was tested. Which z-score did it give?
The z-score was -0.0969.

How did the z-score turn out when `Cc1ccc(-c2[nH]nc3c2C(c2ccoc2)C(C#N)=C(N)O3)cc1C` (stereo unspecified) was run?
Its z-score is 0.829.

With `O=C(CSc1nnc(-c2ccncc2)n1Cc1ccco1)N1c2ccccc2Sc2ccc(Cl)cc21` as the compound, how does the z-score read?
Its z-score is -0.362.

For `O=C(O)CSc1nnc(-c2cccs2)n1-c1ccc(Cl)cc1`, which z-score is on record?
Its z-score is 0.213.

Which z-score does the source give for `CC1(C(=O)O)CCC(C(=O)Nc2ccccc2)C1(C)C` (stereo unspecified) here?
The z-score was 0.178.

Which z-score does the source give for `COc1ccc(-n2c(Cc3cccn3C)nnc2SCC(=O)Nc2ccc(Cl)cc2)cc1` here?
Its z-score is -0.855.

Which z-score does the source give for `CN(C(=O)CSc1nnc(NC2CCCCC2)s1)C1CCS(=O)(=O)C1` (stereo unspecified) here?
The z-score was -0.217.

Which z-score does the source give for `Nc1nnc(SCC(=O)NCc2ccc3c(c2)OCO3)s1` here?
The z-score was 0.141.

How did the z-score turn out when `O=C(CCn1cnc2ccccc2c1=O)Nc1ccc(Cl)c(Cl)c1` was run?
The z-score was -0.166.

For `O=C1C(Cl)=C(N2CCCCC2)C(=O)N1c1ccccc1Cl`, which z-score is on record?
The z-score was -2.27.

How did the z-score turn out when `CCOC(=O)c1ccc(COC(=O)CCc2nc(-c3ccccc3)c(-c3ccccc3)o2)cc1` was run?
Its z-score is -0.163.

With `Cc1ccc(N2C(=O)c3ccc(N)cc3C2=O)cc1C` as the compound, how does the z-score read?
Its z-score is -0.197.

How did the z-score turn out when `CC(=O)NC1=NN(C(C)=O)C(C)(c2cccs2)S1` (stereo unspecified) was run?
Its z-score is -0.0691.

With `CC(C)(C)c1ccc(-c2nnc(SCC(=O)Nc3sc4c(c3C#N)CCCC4)o2)cc1` as the compound, how does the z-score read?
The z-score was -0.0718.

With `CC(C)Oc1ccc(N2CC(C(=O)Nc3ccccc3F)CC2=O)cc1` (stereo unspecified) as the compound, how does the z-score read?
Its z-score is -0.0994.

With `CCOc1ccc(N=C2C(=O)N(CN3CCOCC3)c3ccccc32)cc1` as the compound, how does the z-score read?
The z-score was -0.696.

Which z-score does the source give for `Cc1nc(N2CCN(C)CC2)[nH]c(=O)c1Cc1cccc2ccccc12` here?
Its z-score is -0.192.

`CCN(CC)CC(=O)N1N=C(c2cccs2)CC1c1ccco1` (stereo unspecified) was tested. Which z-score did it give?
The z-score was -0.0372.

Which z-score does the source give for `COc1ccccc1CC(=O)Nc1ccc(-c2nnc(-c3ccco3)o2)cc1` here?
The z-score was 1.11.

With `Cc1ccc(SCCNC(=O)C(CO)(CO)CO)cc1` as the compound, how does the z-score read?
The z-score was 0.21.

For `CC(=O)c1cnc2c(C(=O)O)cnn2c1C`, which z-score is on record?
Its z-score is -0.379.

How did the z-score turn out when `Cc1cc(C)c(NC(=O)C2CCCN2CCO)c(C)c1` (stereo unspecified) was run?
Its z-score is 0.17.

Which z-score does the source give for `O=C(NCc1ccc(F)cc1)C1CCC(=O)N1C1CCCCC1` (stereo unspecified) here?
The z-score was 0.276.
